Where “and” joins values, the source holds several entries; their conditions need not be identical. Equal values may be shown once. The source gives many values for each of these; only a part stands here. Toxic doses and inconclusive results are not listed.
Tested on: CD2F1 mice, L1210 leukemia ip, survival T/C
Assay: NCI In Vivo Anticancer Drug Screen. Data for tumor model L1210 Leukemia (intraperitoneal) in CD2F1 (CDF1) mice
Conditions: higher = longer survival
Outline: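 Compound-dosed mice with transplantable tumor versus matched vehicle controls; endpoint ratio T/C reported.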

O=P1(N(CCCl)CCCl)NCCCO1 (configuration not stated)
T/C (endpoint: mean survival time, dose: 6.25 mg/kg/injection, schedule: Q01DX009 (ip), vehicle: saline): 101 % of control and 111 % of control
T/C (endpoint: mean survival time, dose: 10.0 mg/kg/injection, schedule: Q01DX009 (ip), vehicle: saline): 104 % of control
T/C (endpoint: mean survival time, dose: 12.5 mg/kg/injection, schedule: Q01DX005 (ip), vehicle: water): 109 % of control
T/C (endpoint: mean survival time, dose: 23.3 mg/kg/injection, schedule: Q01DX001 (ip), vehicle: water): 109 % of control
T/C (endpoint: mean survival time, dose: 25.0 mg/kg/injection, schedule: Q01DX001 (ip), vehicle: DMSO): 102 % of control
T/C (endpoint: mean survival time, dose: 25.0 mg/kg/injection, schedule: Q01DX001 (ip), vehicle: other): 104 % of control
T/C (endpoint: mean survival time, dose: 25.0 mg/kg/injection, schedule: Q04DX003 (ip), vehicle: saline): 106 % of control
T/C (endpoint: mean survival time, dose: 31.2 mg/kg/injection, schedule: Q01DX001 (ip), vehicle: water): 108 % of control and 110 % of control
T/C (endpoint: mean survival time, dose: 31.25 mg/kg/injection, schedule: Q01DX001 (ip), vehicle: saline): 106 % of control
T/C (endpoint: mean survival time, dose: 31.3 mg/kg/injection, schedule: Q01DX001 (ip), vehicle: DMSO): 107 % of control
T/C (endpoint: mean survival time, dose: 31.3 mg/kg/injection, schedule: Q01DX001 (ip), vehicle: saline): 106 % of control
T/C (endpoint: mean survival time, dose: 40.0 mg/kg/injection, schedule: Q01DX001 (ip), vehicle: saline): 109 % of control
T/C (endpoint: mean survival time, dose: 50.0 mg/kg/injection, schedule: Q01DX001 (ip), vehicle: other): 109 % of control
T/C (endpoint: mean survival time, dose: 80.0 mg/kg/injection, schedule: Q04DX003 (ip), vehicle: saline): 231 % of control
T/C (endpoint: mean survival time, dose: 100.0 mg/kg/injection, schedule: Q01DX009 (ip), vehicle: saline): 94 % of control and 98 % of control
T/C (endpoint: mean survival time, dose: 100.0 mg/kg/injection, schedule: Q04DX003 (ip), vehicle: saline): 212 % of control
T/C (endpoint: mean survival time, dose: 120.0 mg/kg/injection, schedule: Q04DX003 (ip), vehicle: water): 235 % of control
T/C (endpoint: mean survival time, dose: 160.0 mg/kg/injection, schedule: Q01DX009 (ip), vehicle: saline): 94 % of control
T/C (endpoint: mean survival time, dose: 160.0 mg/kg/injection, schedule: Q04DX003 (ip), vehicle: saline): 308 % of control
T/C (endpoint: mean survival time, dose: 180.0 mg/kg/injection, schedule: Q01DX001 (ip), vehicle: saline): 215 % of control
T/C (endpoint: mean survival time, dose: 200.0 mg/kg/injection, schedule: Q01DX001 (ip), vehicle: DMSO): 211 % of control and 400 % of control and 407 % of control
T/C (endpoint: mean survival time, dose: 200.0 mg/kg/injection, schedule: Q01DX001 (ip), vehicle: other): 294 % of control
T/C (endpoint: mean survival time, dose: 200.0 mg/kg/injection, schedule: Q01DX005 (ip), vehicle: water): 86 % of control
T/C (endpoint: mean survival time, dose: 200.0 mg/kg/injection, schedule: Q## X001 (ip), vehicle: saline): 248 % of control
T/C (endpoint: mean survival time, dose: 250.0 mg/kg/injection, schedule: Q01DX001 (ip), vehicle: Klucel (hydroxypropylcellulose) (HPC)): 223 % of control and 290 % of control
T/C (endpoint: mean survival time, dose: 250.0 mg/kg/injection, schedule: Q01DX001 (ip), vehicle: saline with Tween-80): 321 % of control
T/C (endpoint: mean survival time, dose: 267.0 mg/kg/injection, schedule: Q01DX001 (ip), vehicle: saline): 507 % of control
T/C (endpoint: mean survival time, dose: 280.0 mg/kg/injection, schedule: Q01DX001 (ip), vehicle: saline): 236 % of control
T/C (endpoint: mean survival time, dose: 300.0 mg/kg/injection, schedule: Q01DX001 (ip), vehicle: water): 216 % of control and 248 % of control (2×)
T/C (endpoint: mean survival time, dose: 400.0 mg/kg/injection, schedule: Q01DX001 (ip), vehicle: DMSO): 232 % of control and 626 % of control and 653 % of control
T/C (endpoint: mean survival time, dose: 400.0 mg/kg/injection, schedule: Q01DX001 (ip), vehicle: other): 282 % of control
T/C (endpoint: mean survival time, dose: 400.0 mg/kg/injection, schedule: Q## X001 (ip), vehicle: saline): 297 % of control
T/C (endpoint: mean survival time, dose: 450.0 mg/kg/injection, schedule: Q01DX001 (ip), vehicle: saline): 314 % of control
T/C (endpoint: median survival time, dose: 6.25 mg/kg/injection, schedule: Q01DX005 (ip), vehicle: saline): 107 % of control
T/C (endpoint: median survival time, dose: 10.0 mg/kg/injection, schedule: Q01DX009 (ip), vehicle: water): 107 % of control
T/C (endpoint: median survival time, dose: 12.5 mg/kg/injection, schedule: Q01DX005 (ip), vehicle: saline): 110 % of control
T/C (endpoint: median survival time, dose: 16.2 mg/kg/injection, schedule: Q10HX004 (ip), vehicle: saline): 102 % of control
T/C (endpoint: median survival time, dose: 25.0 mg/kg/injection, schedule: Q01DX001 (ip), vehicle: saline): 111 % of control
T/C (endpoint: median survival time, dose: 25.0 mg/kg/injection, schedule: Q01DX001 (ip), vehicle: water): 111 % of control
T/C (endpoint: median survival time, dose: 27.0 mg/kg/injection, schedule: Q10HX004 (ip), vehicle: saline): 106 % of control
T/C (endpoint: median survival time, dose: 50.0 mg/kg/injection, schedule: Q03DX003 (ip), vehicle: saline): 233 % of control
T/C (endpoint: median survival time, dose: 100.0 mg/kg/injection, schedule: Q01DX005 (ip), vehicle: saline): 317 % of control
T/C (endpoint: median survival time, dose: 100.0 mg/kg/injection, schedule: Q03DX003 (ip), vehicle: saline): 555 % of control
T/C (endpoint: median survival time, dose: 100.0 mg/kg/injection, schedule: Q07DX003 (sc), vehicle: saline): 226 % of control and 237 % of control
T/C (endpoint: median survival time, dose: 108.0 mg/kg/injection, schedule: Q01DX001 (ip), vehicle: saline): 98 % of control
T/C (endpoint: median survival time, dose: 125.0 mg/kg/injection, schedule: Q01DX001 (ip), vehicle: water): 289 % of control
T/C (endpoint: median survival time, dose: 125.0 mg/kg/injection, schedule: Q10HX004 (ip), vehicle: saline): 233 % of control
T/C (endpoint: median survival time, dose: 140.0 mg/kg/injection, schedule: Q07DX003 (ip), vehicle: saline): 295 % of control
T/C (endpoint: median survival time, dose: 150.0 mg/kg/injection, schedule: Q07DX003 (sc), vehicle: saline): 297 % of control and 312 % of control
T/C (endpoint: median survival time, dose: 180.0 mg/kg/injection, schedule: Q01DX001 (ip), vehicle: saline): 103 % of control
T/C (endpoint: median survival time, dose: 180.0 mg/kg/injection, schedule: Q01DX001 (iv), vehicle: saline): 214 % of control
T/C (endpoint: median survival time, dose: 200.0 mg/kg/injection, schedule: Q07DX003 (ip), vehicle: saline): 287 % of control
T/C (endpoint: median survival time, dose: 225.0 mg/kg/injection, schedule: Q01DX001 (ip), vehicle: saline): 410 % of control
T/C (endpoint: median survival time, dose: 225.0 mg/kg/injection, schedule: Q07DX003 (sc), vehicle: saline): 356 % of control and 357 % of control
T/C (endpoint: median survival time, dose: 250.0 mg/kg/injection, schedule: Q01DX001 (ip), vehicle: water): 361 % of control and 523 % of control
T/C (endpoint: median survival time, dose: 260.0 mg/kg/injection, schedule: Q07DX003 (ip), vehicle: saline): 306 % of control
T/C (endpoint: median survival time, dose: 275.0 mg/kg/injection, schedule: Q01DX001 (ip), vehicle: saline): 410 % of control
T/C (endpoint: median survival time, dose: 300.0 mg/kg/injection, schedule: Q01DX001 (iv), vehicle: saline): 388 % of control
T/C (endpoint: median survival time, dose: 400.0 mg/kg/injection, schedule: Q01DX001 (ip), vehicle: water): 89 % of control
T/C (endpoint: median survival time, dose: 450.0 mg/kg/injection, schedule: Q01DX001 (ip), vehicle: saline): 211 % of control
T/C (endpoint: median survival time, dose: 500.0 mg/kg/injection, schedule: Q01DX001 (ip), vehicle: water): 523 % of control
T/C (endpoint: median survival time, dose: 500.0 mg/kg/injection, schedule: Q01DX001 (iv), vehicle: saline): 100 % of control

— PubChem BioAssay AID256 (DTP/NCI, 2004)
